Measurements: the supplement of paper PMC9433436
± gives the standard deviation of the averaged measurements. In all, about 4,100 sequences were measured (“relative kcat/Km (krel) vs genomic leader AAAGAU”: median about 1.7, highest 2% from about 6.5 on). The entries are a selection whose mix differs from that of the whole data set.

Biological target: T1, E. coli RNase P holoenzyme (M1 P RNA + rnpA protein) (UniProt P0A7Y8)
T1 sequence: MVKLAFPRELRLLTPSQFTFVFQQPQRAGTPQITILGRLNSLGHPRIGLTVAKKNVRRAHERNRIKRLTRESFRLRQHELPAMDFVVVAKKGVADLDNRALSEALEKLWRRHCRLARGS
Experiment: relative kcat/Km (krel) vs genomic leader AAAGAU (relative (reference leader = 1)); higher = faster RNase P cleavage
Procedure: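 HTS-Kin: a pool of ptRNA-Met (21C construct) with all 4096 combinations of 5' leader nucleotides N(-6) to N(-1) was processed in vitro by E. coli RNase P (P RNA + rnpA/C5 protein) under multiple-turnover conditions at 37 C, pH 8, 17.5 mM MgCl2. Residual substrate was Illumina-sequenced at several fractions reacted, and relative kcat/Km (krel) was computed by internal competition kinetics, calibrated to the genomic leader (AAAGAU = 1). The listed hexamer is the varied N(-6)..N(-1) leader (DNA letters), and it sits between a fixed 5' stem-loop flank (GCAUGCACGAAAGUGCGUGCUAUGAA) and the mature tRNA-Met starting GGCUACGUAGCUCAGUUGG. Two technical replicates are averaged.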

[1] = fraction of substrate reacted: ~9-10% (9.79% repeat 1, 9.1% repeat 2)
[2] = fraction of substrate reacted: ~13-16% (15.68% repeat 1, 13.17% repeat 2)
[3] = fraction of substrate reacted: ~26-29% (28.66% repeat 1, 26.4% repeat 2)

Sequence	relative kcat/Km [1]	relative kcat/Km [2]	relative kcat/Km [3]
ACCTGC	3.58 ± 3.5	3.61 ± 2.3	5.37 ± 2.5
GCTATT	1.8 ± 1.4	1.66 ± 0.13	2.42 ± 0.74
TCGTCG	2.21 ± 2	0.914 ± 0.037	2.54 ± 0.36
CGGTCC	–	–	0.889 ± 0.14
ATGCTT	1 ± 0.46	0.914 ± 0.33	1.21 ± 0.11
GGTCGG	–	–	1.11 ± 0.022
AGGACA	0.85 ± 0.69	–	1.09 ± 0.055
GGAGGC	–	–	1.17 ± 0.87
GATGAC	2.24 ± 0.28	3.37 ± 1.1	3.78 ± 0.99
AGGATG	–	–	0.66 ± 0.62
TCCAGT	–	–	2.37 ± 1.9
CTGCGC	2.66 ± 0.34	1.36 ± 0.78	1.85 ± 0.5
CCTACC	1.71 ± 0.4	0.951 ± 0.36	2.17 ± 0.89
TAAGAA	1.86 ± 0.2	2.65 ± 0.13	3.35 ± 1.5
TTGCAC	2.41 ± 1.3	2.27 ± 0.05	3.33 ± 0.78
TGATCA	2.5 ± 0.96	2.721 ± 0.0099	3.08 ± 0.97
ACGCAA	1.95 ± 1.4	1.95 ± 0.18	2.25 ± 0.13
CGCTTA	2.24 ± 0.029	2.53 ± 0.65	4.1 ± 1.3
AAACTC	1.47 ± 0.23	1.31 ± 0.23	1.87 ± 0.79
TTGAGG	–	0.396 ± 0.31	0.878 ± 0.018
ACTGTC	1.77 ± 1.3	0.935 ± 0.31	1.12 ± 0.25
AAAAAA	–	0.905 ± 0.46	1.34 ± 0.51

Sequence	relative kcat/Km [1]	relative kcat/Km [2]	relative kcat/Km [3]
GCGTTG	0.523 ± 0.22	–	0.93 ± 0.16
TGTACC	2.23 ± 1.2	2.25 ± 0.53	3.02 ± 1.1
ATAGGA	–	–	1.47 ± 1.2
CTCATA	3.84 ± 2.5	4.93 ± 0.27	6.23 ± 2.5
CGACGC	1.56 ± 0.22	2.23 ± 1.2	3.33 ± 1.1
GTATGA	3.37 ± 1.2	3.58 ± 0.83	5.31 ± 1.5
CCGGAC	1.19 ± 0.53	1.26 ± 0.22	1.06 ± 0.4
GCGCAC	1.47 ± 0.19	1.68 ± 0.2	2.71 ± 0.92
TCGCAT	2.12 ± 0.11	3.11 ± 0.57	5.13 ± 2.3
TGCTAG	1.97 ± 1.5	1.376 ± 0.0054	2.44 ± 0.12
GAGACG	0.628 ± 0.54	–	0.922 ± 0.017
AGAGAC	3.09 ± 1.1	2.96 ± 0.46	3.89 ± 1
CGCGGC	0.659 ± 0.64	0.88 ± 0.63	0.918 ± 0.47
GCAAGT	–	–	2.03 ± 1.9
ATGGGT	–	–	1.36 ± 0.96
GAAGCA	–	0.92 ± 0.54	0.987 ± 0.14
GACGTT	1.51 ± 0.6	1.95 ± 0.25	2.25 ± 0.83
CGCTCG	0.98 ± 0.46	–	1.83 ± 0.12
CGCCCT	2.35 ± 0.5	2.5 ± 0.76	3.34 ± 0.87
TCACGT	–	–	2.17 ± 1.9
TCAAAC	1.67 ± 0.57	2.29 ± 0.36	3.35 ± 1.1
GGCCCG	0.189 ± 0.11	–	0.796 ± 0.22

Sequence	relative kcat/Km [1]	relative kcat/Km [2]	relative kcat/Km [3]
CACCTT	2.74 ± 1.1	3.78 ± 0.4	4.75 ± 1.7
GTGGGG	–	–	1.49 ± 1.3
TCGATT	2.16 ± 0.43	1.87 ± 0.66	3.05 ± 1.1
TCTCTT	1.52 ± 0.23	2.64 ± 0.56	3.18 ± 1.3
CAATCG	–	0.566 ± 0.54	1.17 ± 0.2
CTGCTA	0.997 ± 0.058	0.732 ± 0.51	1.61 ± 0.3
GCGCAG	1.13 ± 0.61	0.385 ± 0.34	1.7 ± 0.14
ATAAGG	–	–	1.16 ± 0.062
GCATAT	2.21 ± 0.23	2.98 ± 0.44	4.59 ± 2.3
ACATAT	2.86 ± 0.79	4.26 ± 0.58	6.5 ± 3.1
TGCCCA	2.72 ± 0.044	1.88 ± 0.82	2.73 ± 1.4
ATGACG	–	–	1.18 ± 0.18
GTGATT	2.28 ± 0.43	1.58 ± 0.37	1.61 ± 0.32
ACGTCC	2.17 ± 1.1	3.58 ± 0.83	4.18 ± 1.6
GGTGTA	–	0.493 ± 0.057	1.2 ± 0.96
GCGAGC	0.191 ± 0.091	0.229 ± 0.19	0.977 ± 0.47
TCTTTG	–	0.542 ± 0.4	1.699 ± 0.016
CTGGAT	–	–	0.85 ± 0.41
ACGGGA	–	–	1.44 ± 1.2
GTCTGA	3.86 ± 1.8	4.82 ± 1.2	6.97 ± 2.6
CAGTAG	1.92 ± 1.4	1.74 ± 0.43	2.83 ± 0.14
GGGATC	1.19 ± 0.85	1.51 ± 0.049	1.47 ± 0.93

Sequence	relative kcat/Km [1]	relative kcat/Km [2]	relative kcat/Km [3]
GGCGAT	1.24 ± 0.38	1.52 ± 0.5	2.32 ± 0.83
CAACAT	2.71 ± 1	2.93 ± 0.74	3.93 ± 1.4
GCTACA	0.636 ± 0.073	1.03 ± 0.29	1.25 ± 0.11
CATCAA	2.69 ± 0.095	3.35 ± 0.32	4.59 ± 1.9
CCCTCC	3.55 ± 1.1	3.38 ± 0.94	4.21 ± 1.1
AGTACA	1.8 ± 0.084	2.74 ± 0.86	3.73 ± 1.9
ACTCTA	1.31 ± 0.6	1.17 ± 0.4	1.63 ± 0.17
TGTGCC	1.63 ± 0.12	1.62 ± 0.43	1.75 ± 0.24
GGCACC	1.52 ± 1.3	1.01 ± 0.24	2.04 ± 0.18
CTAAGT	–	1.43 ± 0.51	1.61 ± 1.5
TTACTG	–	–	1.08 ± 0.42
GAGGAA	0.602 ± 0.52	0.939 ± 0.076	1.79 ± 0.85
ACGCCT	2.29 ± 0.78	1.88 ± 0.059	1.87 ± 0.6
TTTTTG	–	0.524 ± 0.47	1.62 ± 0.058
TATAAC	2.65 ± 1.4	3.12 ± 0.54	5.05 ± 2
AGGAGC	1.59 ± 1.1	1.02 ± 0.61	0.969 ± 0.36
ACGATC	2.34 ± 1.4	1.693 ± 0.0099	2.33 ± 0.094
AAGTTT	2.13 ± 0.53	2.04 ± 0.17	2.67 ± 1.1
CACTAT	4.78 ± 1.4	6.06 ± 2	8.37 ± 3.9
AGCCTC	2.21 ± 0.56	2.38 ± 0.16	3.32 ± 1.3
TTCGAG	–	1.96 ± 0.07	4.8 ± 1
ACCAAA	2.83 ± 2.3	3.55 ± 0.63	4.37 ± 0.92

Sequence	relative kcat/Km [1]	relative kcat/Km [2]	relative kcat/Km [3]
ACATGG	–	0.298 ± 0.088	0.655 ± 0.37
CAGTAA	3.92 ± 1.4	4.428 ± 0.033	6.07 ± 2
GTGGAA	1.44 ± 0.63	–	1.63 ± 1.1
TCTAGC	2.46 ± 0.3	2.18 ± 0.1	3.56 ± 1.4
GCGTAA	1.62 ± 0.52	1.42 ± 0.16	2.5 ± 0.33
CCGCTC	1.44 ± 1.4	2.28 ± 1.4	2.86 ± 0.95
GACCCT	1.62 ± 0.21	2.19 ± 0.85	3.06 ± 1.1
GTAACG	–	0.791 ± 0.12	1.8 ± 0.38
GAGTGG	0.249 ± 0.11	–	0.78 ± 0.41
CAGCCC	1.8 ± 0.4	1.46 ± 0.23	1.99 ± 0.78
ACGGCA	–	–	0.61 ± 0.15
CCGCGA	1.97 ± 0.27	2.29 ± 1.1	2.09 ± 0.61
CTATGG	0.695 ± 0.42	–	0.694 ± 0.17
AAGAGT	–	–	0.68 ± 0.56
CCTACA	2.23 ± 1.1	1.82 ± 0.36	1.9 ± 0.68
TGACTC	1.6 ± 1.1	1.5301 ± 0.0012	2.79 ± 0.73
GCCATA	2.49 ± 0.76	2.63 ± 0.3	4.67 ± 1.9
TAACGA	2.21 ± 0.23	2.84 ± 0.52	4.01 ± 2.1
